# Source: the supplement of paper PMC8728848
# Some of the results follow.
# Columns and labels:
# Test in all cases: glycan array binding signal (z-score within array); higher = stronger binding
# Settings in all cases: glycan notation: IUPAC condensed, linker removed
# [1] = biological target: GlcNAc(b1-2)[GlcNAc(b1-4)]Man(a1-3)[GlcNAc(b1-4)][GlcNAc(b1-2)Man(a1-6)]Man(b1-4)GlcNAc(b1-4)GlcNAc
# Method in brief: (§1)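 Glycan array binding is given as a within-array Z-score, which can be read as non-binding when negative. The arrays, 3228 of them, came from the Consortium for Functional Glycomics database and were retained only where the protein sequence was available. Z-scores were averaged across arrays of the same protein sequence at different concentrations or buffers and across linkers.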
# [2] = biological target: GlcNAc(b1-2)[GlcNAc(b1-4)]Man(a1-3)[GlcNAc(b1-4)][GlcNAc(b1-2)[GlcNAc(b1-6)]Man(a1-6)]Man(b1-4)GlcNAc(b1-4)GlcNAc
# Method in brief: as §1
# [3] = biological target: GlcNAc(b1-2)[GlcNAc(b1-4)]Man(a1-3)[GlcNAc(b1-4)][GlcNAc(b1-2)[GlcNAc(b1-6)]Man(a1-6)]Man(b1-4)GlcNAc(b1-4)[Fuc(a1-6)]GlcNAc
# Method in brief: as §1
# [4] = biological target: GlcNAc(b1-2)[GlcNAc(b1-6)]Man(a1-6)[GlcNAc(b1-2)Man(a1-3)]Man(b1-4)GlcNAc(b1-4)GlcNAc
# Method in brief: as §1
# [5] = biological target: GlcNAc(b1-2)[GlcNAc(b1-6)]Man(a1-6)[GlcNAc(b1-2)Man(a1-3)]Man(b1-4)GlcNAc(b1-4)[Fuc(a1-6)]GlcNAc
# Method in brief: as §1
# [6] = biological target: GlcNAc(b1-2)[GlcNAc(b1-6)]Man(a1-6)[GlcNAc(b1-4)][GlcNAc(b1-2)Man(a1-3)]Man(b1-4)GlcNAc(b1-4)GlcNAc
# Method in brief: as §1
# GlcNAc(b1-3)Fuc = biological target: GlcNAc(b1-3)Fuc
# Method in brief: as §1
# GlcNAc(b1-3)Gal = biological target: GlcNAc(b1-3)Gal
# Method in brief: as §1
# [7] = biological target: GlcNAc(b1-3)Gal(b1-3)GalNAc
# Method in brief: as §1
# GlcNAc(b1-3)Gal(b1-4)Glc = biological target: GlcNAc(b1-3)Gal(b1-4)Glc
# Method in brief: as §1
# [8] = biological target: GlcNAc(b1-3)Gal(b1-4)GlcNAc
# Method in brief: as §1
# [9] = biological target: GlcNAc(b1-3)Gal(b1-4)GlcNAc(b1-2)Man(a1-3)[GlcNAc(b1-3)Gal(b1-4)GlcNAc(b1-2)Man(a1-6)]Man(b1-4)GlcNAc(b1-4)GlcNAc
# Method in brief: as §1
# [10] = biological target: GlcNAc(b1-3)Gal(b1-4)GlcNAc(b1-2)Man(a1-3)[GlcNAc(b1-3)Gal(b1-4)GlcNAc(b1-2)Man(a1-6)]Man(b1-4)GlcNAc(b1-4)[Fuc(a1-6)]GlcNAc
# Method in brief: as §1
# [11] = biological target: GlcNAc(b1-3)Gal(b1-4)GlcNAc(b1-2)[GlcNAc(b1-3)Gal(b1-4)GlcNAc(b1-6)]Man(a1-6)[GlcNAc(b1-3)Gal(b1-4)GlcNAc(b1-2)Man(a1-3)]Man(b1-4)GlcNAc(b1-4)GlcNAc
# Method in brief: as §1
# [12] = biological target: GlcNAc(b1-3)Gal(b1-4)GlcNAc(b1-3)Gal(b1-4)GlcNAc
# Method in brief: as §1
# [13] = biological target: GlcNAc(b1-3)Gal(b1-4)GlcNAc(b1-3)Gal(b1-4)GlcNAc(b1-2)Man(a1-3)[GlcNAc(b1-3)Gal(b1-4)GlcNAc(b1-3)Gal(b1-4)GlcNAc(b1-2)Man(a1-6)]Man(b1-4)GlcNAc(b1-4)GlcNAc
# Method in brief: as §1
# [14] = biological target: GlcNAc(b1-3)Gal(b1-4)GlcNAc(b1-3)Gal(b1-4)GlcNAc(b1-2)Man(a1-3)[GlcNAc(b1-3)Gal(b1-4)GlcNAc(b1-3)Gal(b1-4)GlcNAc(b1-2)Man(a1-6)]Man(b1-4)GlcNAc(b1-4)[Fuc(a1-6)]GlcNAc
# Method in brief: as §1
# [15] = biological target: GlcNAc(b1-3)Gal(b1-4)GlcNAc(b1-3)Gal(b1-4)GlcNAc(b1-2)[GlcNAc(b1-3)Gal(b1-4)GlcNAc(b1-3)Gal(b1-4)GlcNAc(b1-6)]Man(a1-6)[GlcNAc(b1-3)Gal(b1-4)GlcNAc(b1-3)Gal(b1-4)GlcNAc(b1-2)Man(a1-3)]Man(b1-4)GlcNAc(b1-4)[Fuc(a1-6)]GlcNAc
# Method in brief: as §1
# [16] = biological target: GlcNAc(b1-3)Gal(b1-4)GlcNAc(b1-3)Gal(b1-4)GlcNAc(b1-3)Gal(b1-4)GlcNAc(b1-2)Man(a1-3)[GlcNAc(b1-3)Gal(b1-4)GlcNAc(b1-3)Gal(b1-4)GlcNAc(b1-3)Gal(b1-4)GlcNAc(b1-2)Man(a1-6)]Man(b1-4)GlcNAc(b1-4)GlcNAc
# Method in brief: as §1
# [17] = biological target: GlcNAc(b1-3)Gal(b1-4)GlcNAc(b1-3)Gal(b1-4)GlcNAc(b1-3)Gal(b1-4)GlcNAc(b1-2)Man(a1-3)[GlcNAc(b1-3)Gal(b1-4)GlcNAc(b1-3)Gal(b1-4)GlcNAc(b1-3)Gal(b1-4)GlcNAc(b1-2)Man(a1-6)]Man(b1-4)GlcNAc(b1-4)[Fuc(a1-6)]GlcNAc
# Method in brief: as §1
# [18] = biological target: GlcNAc(b1-3)Gal(b1-4)GlcNAc(b1-3)Gal(b1-4)GlcNAc(b1-3)Gal(b1-4)GlcNAc(b1-2)[GlcNAc(b1-3)Gal(b1-4)GlcNAc(b1-3)Gal(b1-4)GlcNAc(b1-3)Gal(b1-4)GlcNAc(b1-6)]Man(a1-6)[GlcNAc(b1-3)Gal(b1-4)GlcNAc(b1-3)Gal(b1-4)GlcNAc(b1-3)Gal(b1-4)GlcNAc(b1-2)Man(a1-3)]Man(b1-4)GlcNAc(b1-4)[Fuc(a1-6)]GlcNAc
# Method in brief: as §1
# [19] = biological target: GlcNAc(b1-3)Gal(b1-4)GlcNAc(b1-3)Gal(b1-4)GlcNAc(b1-3)Gal(b1-4)GlcNAc(b1-3)Gal(b1-4)GlcNAc(b1-2)Man(a1-3)[GlcNAc(b1-3)Gal(b1-4)GlcNAc(b1-3)Gal(b1-4)GlcNAc(b1-3)Gal(b1-4)GlcNAc(b1-3)Gal(b1-4)GlcNAc(b1-2)Man(a1-6)]Man(b1-4)GlcNAc(b1-4)GlcNAc
# Method in brief: as §1
# [20] = biological target: GlcNAc(b1-3)Gal(b1-4)GlcNAc(b1-3)Gal(b1-4)GlcNAc(b1-3)Gal(b1-4)GlcNAc(b1-3)Gal(b1-4)GlcNAc(b1-2)Man(a1-3)[GlcNAc(b1-3)Gal(b1-4)GlcNAc(b1-3)Gal(b1-4)GlcNAc(b1-3)Gal(b1-4)GlcNAc(b1-3)Gal(b1-4)GlcNAc(b1-2)Man(a1-6)]Man(b1-4)GlcNAc(b1-4)[Fuc(a1-6)]GlcNAc
# Method in brief: as §1
# [21] = biological target: GlcNAc(b1-3)Gal(b1-4)GlcNAc(b1-3)Gal(b1-4)GlcNAc(b1-3)Gal(b1-4)GlcNAc(b1-3)Gal(b1-4)GlcNAc(b1-2)[GlcNAc(b1-3)Gal(b1-4)GlcNAc(b1-3)Gal(b1-4)GlcNAc(b1-3)Gal(b1-4)GlcNAc(b1-3)Gal(b1-4)GlcNAc(b1-6)]Man(a1-6)[GlcNAc(b1-3)Gal(b1-4)GlcNAc(b1-3)Gal(b1-4)GlcNAc(b1-3)Gal(b1-4)GlcNAc(b1-3)Gal(b1-4)GlcNAc(b1-2)Man(a1-3)]Man(b1-4)GlcNAc(b1-4)[Fuc(a1-6)]GlcNAc
# Method in brief: as §1
# [22] = biological target: GlcNAc(b1-3)Gal(b1-4)GlcNAc(b1-3)Gal(b1-4)GlcNAc(b1-3)GalNAc
# Method in brief: as §1
# [23] = biological target: GlcNAc(b1-3)Gal(b1-4)GlcNAc(b1-3)GalNAc
# Method in brief: as §1
# [24] = biological target: GlcNAc(b1-3)Gal(b1-4)GlcNAc(b1-3)[GlcNAc(b1-3)Gal(b1-4)GlcNAc(b1-3)]GalNAc
# Method in brief: as §1
# [25] = biological target: GlcNAc(b1-3)Gal(b1-4)GlcNAc(b1-6)[Gal(b1-3)]GalNAc
# Method in brief: as §1
# [26] = biological target: GlcNAc(b1-3)Gal(b1-4)GlcNAc(b1-6)[GlcNAc(b1-3)Gal(b1-3)]GalNAc
# Method in brief: as §1
# [27] = biological target: GlcNAc(b1-3)Gal(b1-4)GlcNAc(b1-6)[GlcNAc(b1-3)]Gal(b1-4)GlcNAc
# Method in brief: as §1
# GlcNAc(b1-3)GalNAc = biological target: GlcNAc(b1-3)GalNAc
# Method in brief: as §1
# GlcNAc(b1-3)Man = biological target: GlcNAc(b1-3)Man
# Method in brief: as §1
# [28] = biological target: GlcNAc(b1-3)[GlcNAc(b1-4)][GlcNAc(b1-6)]GlcNAc
# Method in brief: as §1
# [29] = biological target: GlcNAc(b1-3)[GlcNAc(b1-6)]Gal(b1-4)GlcNAc
# Method in brief: as §1
# [30] = biological target: GlcNAc(b1-3)[GlcNAc(b1-6)]GalNAc
# Method in brief: as §1
# [31] = biological target: GlcNAc(b1-4)Gal(b1-4)GlcNAc
# Method in brief: as §1
# GlcNAc(b1-4)GlcNAc = biological target: GlcNAc(b1-4)GlcNAc
# Method in brief: as §1
# [32] = biological target: GlcNAc(b1-4)GlcNAc(b1-4)GlcNAc
# Method in brief: as §1
binder,measurement,setting,value
"SGC, Q9M345 (protein) QNLNFTYNGFHPPLTDISLQGLATVTPNGLLKLTNTSVQKTGHAFCTERIRFKDSQNGNVSSFSTTFVFAIHSQIPTLSGHGIAFVVAPTLGLPFALPSQYIGLFNISNNGNDTNHIFAVEFDTIQSSEFGDPNDNHVGIDLNGLRSANYSTAGYRDDHDKFQNLSLISRKRIQVWIDYDNRSHRIDVTVAPFDSDKPRKPLVSYVRDLSSILLEDMYVGFSSATGSVLSEHFLVGWSFRLNGEAPMLSLSKLPKLPRFEPRRIS",glycan array binding signal (z-score),[1],-0.354
same,glycan array binding signal (z-score),[2],-0.356
same,glycan array binding signal (z-score),[3],-0.381
same,glycan array binding signal (z-score),[4],-0.353
same,glycan array binding signal (z-score),[5],-0.375
same,glycan array binding signal (z-score),[6],-0.322
same,glycan array binding signal (z-score),GlcNAc(b1-3)Fuc,-0.337
same,glycan array binding signal (z-score),GlcNAc(b1-3)Gal,-0.392
same,glycan array binding signal (z-score),[7],-0.357
same,glycan array binding signal (z-score),GlcNAc(b1-3)Gal(b1-4)Glc,-0.404
same,glycan array binding signal (z-score),[8],-0.367
same,glycan array binding signal (z-score),[9],-0.412
same,glycan array binding signal (z-score),[10],-0.26
same,glycan array binding signal (z-score),[11],0.835
same,glycan array binding signal (z-score),[12],-0.38
same,glycan array binding signal (z-score),[13],-0.292
same,glycan array binding signal (z-score),[14],-0.198
same,glycan array binding signal (z-score),[15],-0.236
same,glycan array binding signal (z-score),[16],-0.396
same,glycan array binding signal (z-score),[17],-0.265
same,glycan array binding signal (z-score),[18],-0.294
same,glycan array binding signal (z-score),[19],-0.325
same,glycan array binding signal (z-score),[20],-0.308
same,glycan array binding signal (z-score),[21],-0.162
same,glycan array binding signal (z-score),[22],-0.364
same,glycan array binding signal (z-score),[23],-0.322
same,glycan array binding signal (z-score),[24],-0.353
same,glycan array binding signal (z-score),[25],-0.31
same,glycan array binding signal (z-score),[26],-0.355
same,glycan array binding signal (z-score),[27],-0.358
same,glycan array binding signal (z-score),GlcNAc(b1-3)GalNAc,-0.395
same,glycan array binding signal (z-score),GlcNAc(b1-3)Man,-0.422
same,glycan array binding signal (z-score),[28],-0.336
same,glycan array binding signal (z-score),[29],-0.352
same,glycan array binding signal (z-score),[30],-0.342
same,glycan array binding signal (z-score),[31],-0.349
same,glycan array binding signal (z-score),GlcNAc(b1-4)GlcNAc,-0.333
same,glycan array binding signal (z-score),[32],-0.354
